# From the supplement of paper PMC8728848
# This is one part of the list.
# B1: Banana lectin (Musa acuminata) (protein)
# chain: MNGAIKVGAWGGNGGSAFDMGPAYRIISVKIFSGDVVDGVDVTFTYYGKTETRHYGGSGGTPHEIVLQEGEYLVGMAGEVANYTGAVVLGKLGFSTNKKAYGPFGNTGGTPFSLPIAAGKISGFFGRGGKFLDAIGVYLEPLEHHHHHH
# How the values were obtained:
# Assay in all cases: glycan array binding signal (z-score within array); higher = stronger binding
# Conditions in all cases: glycan notation: IUPAC condensed, linker removed; mutation: H84T
# [1] = target: Fuc(a1-2)[Gal(a1-3)]Gal(b1-4)GlcNAc(b1-2)Man(a1-3)[Fuc(a1-2)[Gal(a1-3)]Gal(b1-4)GlcNAc(b1-2)Man(a1-6)]Man(b1-4)GlcNAc(b1-4)GlcNAc
# Outline: (§1)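 From the Consortium for Functional Glycomics database, 3228 arrays were curated, keeping only those whose protein sequence was available. Binding is given as a within-array Z-score averaged across arrays sharing a protein sequence and across linkers. Negative Z-scores can be read as non-binding.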
# [2] = target: Fuc(a1-2)[Gal(a1-3)]Gal(b1-4)GlcNAc(b1-2)Man(a1-3)[Fuc(a1-2)[Gal(a1-3)]Gal(b1-4)GlcNAc(b1-2)Man(a1-6)]Man(b1-4)GlcNAc(b1-4)[Fuc(a1-6)]GlcNAc
# Outline: as §1
# [3] = target: Fuc(a1-2)[Gal(a1-3)]Gal(b1-4)GlcNAc(b1-3)GalNAc
# Outline: as §1
# [4] = target: Fuc(a1-2)[Gal(a1-3)]Gal(b1-4)GlcNAc(b1-3)[Fuc(a1-2)[Gal(a1-3)]Gal(b1-4)GlcNAc(b1-6)]GalNAc
# Outline: as §1
# [5] = target: Fuc(a1-2)[Gal(a1-3)]Gal(b1-4)GlcNAc(b1-6)GalNAc
# Outline: as §1
# [6] = target: Fuc(a1-2)[Gal(a1-3)]Gal(b1-4)[Fuc(a1-3)]Glc
# Outline: as §1
# [7] = target: Fuc(a1-2)[Gal(a1-3)]Gal(b1-4)[Fuc(a1-3)]GlcNAc
# Outline: as §1
# [8] = target: Fuc(a1-2)[Gal(a1-3)]Gal(b1-4)[Fuc(a1-3)]GlcNAc(b1-3)GalNAc
# Outline: as §1
# [9] = target: Fuc(a1-2)[Gal(a1-4)]Gal(b1-4)GlcNAc
# Outline: as §1
# [10] = target: Fuc(a1-2)[GalNAc(a1-3)]Gal
# Outline: as §1
# [11] = target: Fuc(a1-2)[GalNAc(a1-3)]Gal(b1-3)GalNAc(a1-3)[Fuc(a1-2)]Gal(b1-4)GlcNAc
# Outline: as §1
# [12] = target: Fuc(a1-2)[GalNAc(a1-3)]Gal(b1-3)GalNAc(b1-3)Gal(a1-4)Gal(b1-4)Glc
# Outline: as §1
# [13] = target: Fuc(a1-2)[GalNAc(a1-3)]Gal(b1-3)GlcNAc
# Outline: as §1
# [14] = target: Fuc(a1-2)[GalNAc(a1-3)]Gal(b1-3)GlcNAc(b1-2)Man(a1-3)[Fuc(a1-2)[GalNAc(a1-3)]Gal(b1-3)GlcNAc(b1-2)Man(a1-6)]Man(b1-4)GlcNAc(b1-4)GlcNAc
# Outline: as §1
# [15] = target: Fuc(a1-2)[GalNAc(a1-3)]Gal(b1-3)GlcNAc(b1-2)Man(a1-3)[Fuc(a1-2)[GalNAc(a1-3)]Gal(b1-3)GlcNAc(b1-2)Man(a1-6)]Man(b1-4)GlcNAc(b1-4)[Fuc(a1-6)]GlcNAc
# Outline: as §1
# [16] = target: Fuc(a1-2)[GalNAc(a1-3)]Gal(b1-3)GlcNAc(b1-3)GalNAc
# Outline: as §1
# [17] = target: Fuc(a1-2)[GalNAc(a1-3)]Gal(b1-3)GlcNAc(b1-6)GalNAc
# Outline: as §1
# [18] = target: Fuc(a1-2)[GalNAc(a1-3)]Gal(b1-4)Glc
# Outline: as §1
# [19] = target: Fuc(a1-2)[GalNAc(a1-3)]Gal(b1-4)GlcNAc
# Outline: as §1
# [20] = target: Fuc(a1-2)[GalNAc(a1-3)]Gal(b1-4)GlcNAc(b1-2)Man
# Outline: as §1
# [21] = target: Fuc(a1-2)[GalNAc(a1-3)]Gal(b1-4)GlcNAc(b1-2)Man(a1-3)[Fuc(a1-2)[GalNAc(a1-3)]Gal(b1-4)GlcNAc(b1-2)Man(a1-6)]Man(b1-4)GlcNAc(b1-4)GlcNAc
# Outline: as §1
# [22] = target: Fuc(a1-2)[GalNAc(a1-3)]Gal(b1-4)GlcNAc(b1-2)Man(a1-3)[Fuc(a1-2)[GalNAc(a1-3)]Gal(b1-4)GlcNAc(b1-2)Man(a1-6)]Man(b1-4)GlcNAc(b1-4)[Fuc(a1-6)]GlcNAc
# Outline: as §1
# [23] = target: Fuc(a1-2)[GalNAc(a1-3)]Gal(b1-4)GlcNAc(b1-3)Gal(b1-4)GlcNAc
# Outline: as §1
# [24] = target: Fuc(a1-2)[GalNAc(a1-3)]Gal(b1-4)GlcNAc(b1-3)Gal(b1-4)GlcNAc(b1-3)Gal(b1-4)GlcNAc
# Outline: as §1
# [25] = target: Fuc(a1-2)[GalNAc(a1-3)]Gal(b1-4)GlcNAc(b1-3)GalNAc
# Outline: as §1
# [26] = target: Fuc(a1-2)[GalNAc(a1-3)]Gal(b1-4)GlcNAc(b1-3)[Fuc(a1-2)[GalNAc(a1-3)]Gal(b1-4)GlcNAc(b1-6)]GalNAc
# Outline: as §1
# [27] = target: Fuc(a1-2)[GalNAc(a1-3)]Gal(b1-4)GlcNAc(b1-6)GalNAc
# Outline: as §1
# [28] = target: Fuc(a1-2)[GalNAc(a1-3)]Gal(b1-4)[Fuc(a1-3)]GlcNAc
# Outline: as §1
# [29] = target: Fuc(a1-2)[GalNAc(a1-3)]Gal(b1-4)[Fuc(a1-3)]GlcNAc(b1-3)GalNAc
# Outline: as §1
# [30] = target: Fuc(a1-2)[GalNAc(a1-4)]Gal(b1-4)GlcNAc
# Outline: as §1
# [31] = target: Fuc(a1-2)[GalNAc(b1-3)]Gal
# Outline: as §1
# [32] = target: Fuc(a1-3)GlcNAc
# Outline: as §1
# [33] = target: Fuc(a1-3)[Gal(b1-4)]Glc6S
# Outline: as §1
# [34] = target: Fuc(a1-3)[Gal(b1-4)]GlcNAc
# Outline: as §1
# [35] = target: Fuc(a1-3)[Gal(b1-4)]GlcNAc(b1-2)Man
# Outline: as §1
# [36] = target: Fuc(a1-3)[Gal(b1-4)]GlcNAc(b1-2)Man(a1-3)[Fuc(a1-3)[Gal(b1-4)]GlcNAc(b1-2)Man(a1-6)]Man(b1-4)GlcNAc(b1-4)GlcNAc
# Outline: as §1
# [37] = target: Fuc(a1-3)[Gal(b1-4)]GlcNAc(b1-2)Man(a1-3)[Fuc(a1-3)[Gal(b1-4)]GlcNAc(b1-2)Man(a1-6)]Man(b1-4)GlcNAc(b1-4)[Fuc(a1-6)]GlcNAc
# Outline: as §1
# [38] = target: Fuc(a1-3)[Gal(b1-4)]GlcNAc(b1-3)Gal(b1-3)[Fuc(a1-4)]GlcNAc
# Outline: as §1
# [39] = target: Fuc(a1-3)[Gal(b1-4)]GlcNAc(b1-3)Gal(b1-4)[Fuc(a1-3)]GlcNAc
# Outline: as §1
# [40] = target: Fuc(a1-3)[Gal(b1-4)]GlcNAc(b1-3)Gal(b1-4)[Fuc(a1-3)]GlcNAc(b1-3)Gal(b1-4)[Fuc(a1-3)]GlcNAc
# Outline: as §1
# [41] = target: Fuc(a1-3)[Gal(b1-4)]GlcNAc(b1-3)GalNAc
# Outline: as §1
# [42] = target: Fuc(a1-3)[Gal(b1-4)]GlcNAc(b1-6)GalNAc
# Outline: as §1
# [43] = target: Fuc(a1-3)[Gal(b1-4)]GlcNAc(b1-6)[Gal(b1-3)GlcNAc(b1-3)]Gal(b1-4)Glc
# Outline: as §1
# [44] = target: Fuc(a1-3)[Gal(b1-4)]GlcNAc6S
# Outline: as §1
# [45] = target: Fuc(a1-3)[Gal3S(b1-4)]Glc
# Outline: as §1
# [46] = target: Fuc(a1-3)[Gal3S(b1-4)]GlcNAc
# Outline: as §1
# [47] = target: Fuc(a1-3)[Gal3S(b1-4)]GlcNAc6S
# Outline: as §1
# [48] = target: Fuc(a1-3)[GalNAc(b1-4)]GlcNAc
# Outline: as §1
# [49] = target: Fuc(a1-3)[GalNAc(b1-4)]GlcNAc6S
# Outline: as §1
# [50] = target: Fuc(a1-4)GlcNAc
# Outline: as §1
# [51] = target: Fuc(b1-3)GlcNAc
# Outline: as §1
# [52] = target: Gal(a1-2)Gal
# Outline: as §1
# [53] = target: Gal(a1-3)Gal
# Outline: as §1
# [54] = target: Gal(a1-3)Gal(b1-3)GlcNAc
# Outline: as §1
# [55] = target: Gal(a1-3)Gal(b1-3)GlcNAc(b1-2)Man
# Outline: as §1
# [56] = target: Gal(a1-3)Gal(b1-3)GlcNAc(b1-2)Man(a1-3)[Gal(a1-3)Gal(b1-3)GlcNAc(b1-2)Man(a1-6)]Man(b1-4)GlcNAc(b1-4)GlcNAc
# Outline: as §1
# [57] = target: Gal(a1-3)Gal(b1-3)GlcNAc(b1-3)GalNAc
# Outline: as §1
# [58] = target: Gal(a1-3)Gal(b1-3)GlcNAc(b1-6)GalNAc
# Outline: as §1
# [59] = target: Gal(a1-3)Gal(b1-3)[Fuc(a1-4)]GlcNAc(b1-2)Man(a1-3)[Gal(a1-3)Gal(b1-3)[Fuc(a1-4)]GlcNAc(b1-2)Man(a1-6)]Man(b1-4)GlcNAc(b1-4)GlcNAc
# Outline: as §1
# [60] = target: Gal(a1-3)Gal(b1-4)Glc
# Outline: as §1
binder,measurement,setting,value
B1,glycan array binding signal (z-score),[1],-0.124
same,glycan array binding signal (z-score),[2],0.592
same,glycan array binding signal (z-score),[3],-0.149
same,glycan array binding signal (z-score),[4],-0.144
same,glycan array binding signal (z-score),[5],-0.178
same,glycan array binding signal (z-score),[6],-0.155
same,glycan array binding signal (z-score),[7],-0.159
same,glycan array binding signal (z-score),[8],-0.193
same,glycan array binding signal (z-score),[9],-0.197
same,glycan array binding signal (z-score),[10],-0.169
same,glycan array binding signal (z-score),[11],-0.161
same,glycan array binding signal (z-score),[12],-0.165
same,glycan array binding signal (z-score),[13],-0.162
same,glycan array binding signal (z-score),[14],-0.141
same,glycan array binding signal (z-score),[15],0.369
same,glycan array binding signal (z-score),[16],-0.164
same,glycan array binding signal (z-score),[17],-0.177
same,glycan array binding signal (z-score),[18],-0.172
same,glycan array binding signal (z-score),[19],-0.183
same,glycan array binding signal (z-score),[20],-0.15
same,glycan array binding signal (z-score),[21],-0.086
same,glycan array binding signal (z-score),[22],0.3
same,glycan array binding signal (z-score),[23],-0.197
same,glycan array binding signal (z-score),[24],-0.18
same,glycan array binding signal (z-score),[25],-0.189
same,glycan array binding signal (z-score),[26],-0.161
same,glycan array binding signal (z-score),[27],-0.147
same,glycan array binding signal (z-score),[28],-0.173
same,glycan array binding signal (z-score),[29],-0.18
same,glycan array binding signal (z-score),[30],-0.191
same,glycan array binding signal (z-score),[31],-0.195
same,glycan array binding signal (z-score),[32],-0.218
same,glycan array binding signal (z-score),[33],-0.158
same,glycan array binding signal (z-score),[34],-0.18
same,glycan array binding signal (z-score),[35],-0.189
same,glycan array binding signal (z-score),[36],-0.201
same,glycan array binding signal (z-score),[37],-0.115
same,glycan array binding signal (z-score),[38],-0.177
same,glycan array binding signal (z-score),[39],-0.061
same,glycan array binding signal (z-score),[40],-0.194
same,glycan array binding signal (z-score),[41],-0.17
same,glycan array binding signal (z-score),[42],-0.169
same,glycan array binding signal (z-score),[43],-0.214
same,glycan array binding signal (z-score),[44],-0.187
same,glycan array binding signal (z-score),[45],-0.158
same,glycan array binding signal (z-score),[46],-0.134
same,glycan array binding signal (z-score),[47],-0.197
same,glycan array binding signal (z-score),[48],-0.19
same,glycan array binding signal (z-score),[49],-0.204
same,glycan array binding signal (z-score),[50],-0.157
same,glycan array binding signal (z-score),[51],-0.189
same,glycan array binding signal (z-score),[52],-0.167
same,glycan array binding signal (z-score),[53],-0.173
same,glycan array binding signal (z-score),[54],-0.178
same,glycan array binding signal (z-score),[55],-0.173
same,glycan array binding signal (z-score),[56],-0.165
same,glycan array binding signal (z-score),[57],-0.184
same,glycan array binding signal (z-score),[58],-0.136
same,glycan array binding signal (z-score),[59],0.562
same,glycan array binding signal (z-score),[60],-0.193
